# According to the supplement of paper PMC4604168 (melanoma cell lines):
# The other results are listed elsewhere or left out. Many values rest on one well or one pass, so single values are uncertain.
# Legend:
# Assay in all cases: cell count relative to DMSO control; melanoma cells; higher = more viable cells
# Settings in all cases: library dose: low library concentration; 72 h
# WM115 = tested on: WM115
# WM1716 = tested on: WM1716
# WM1745 = tested on: WM1745
# WM3526 = tested on: WM3526
# WM3619 = tested on: WM3619
# WM451Lu = tested on: WM451Lu
# 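Also: cell number obtained by counting DAPI-stained nuclei in high-throughput microscope images with image analysis software, screen run in 1,536-well plates.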
smiles,measurement,setting,value
"Cn1cncc1[C@@](N)(c1ccc(Cl)cc1)c1ccc2c(c1)c(-c1cccc(Cl)c1)cc(=O)n2C [tipifarnib] + COc1cc(N2CCC(N3CCN(C)CC3)CC2)ccc1Nc1ncc(Cl)c(Nc2ccccc2S(=O)(=O)C(C)C)n1 [NVP-TAE684] (first compound 0.01 µM, partner dose 0.08 µM)",cell count,WM115,65.2%
same,cell count,WM1716,105%
same,cell count,WM1745,82.9%
same,cell count,WM3526,82.7%
same,cell count,WM3619,107%
same,cell count,WM451Lu,87.8%
"O=C(O)c1ccc(-c2c[nH]c3ncc(-c4ccccc4)cc23)cc1C1CCCC1 + COc1cc2c(Oc3ccc4[nH]c(C)cc4c3F)ncnc2cc1OCCCN1CCCC1 [cediranib] (first compound 0.16 µM, partner dose 0.4 µM)",cell count,WM115,91.4%
same,cell count,WM1716,88.2%
same,cell count,WM1745,106%
same,cell count,WM3526,103%
same,cell count,WM3619,95.7%
same,cell count,WM451Lu,87.1%
"C[C@@H]1CCN(C(=O)CC#N)C[C@@H]1N(C)c1ncnc2[nH]ccc12 + Oc1nc(-c2ccc(C(F)(F)F)cc2)nc2c1CSCC2 [XAV939] (first compound 1 µM, partner dose 2 µM)",cell count,WM115,76.1%
same,cell count,WM1716,72.6%
same,cell count,WM1745,86.8%
same,cell count,WM3526,91.2%
same,cell count,WM3619,105%
same,cell count,WM451Lu,114%
"O=c1[nH]nc(Sc2ncc([N+](=O)[O-])s2)n1-c1ccc2c(c1)OCCO2 + COc1cc2c(Oc3ccc4[nH]c(C)cc4c3F)ncnc2cc1OCCCN1CCCC1 [cediranib] (first compound 0.2 µM, partner dose 0.4 µM)",cell count,WM115,100%
same,cell count,WM1716,82.6%
same,cell count,WM1745,93.9%
same,cell count,WM3526,102%
same,cell count,WM3619,118%
same,cell count,WM451Lu,93.5%
"O=c1[nH]nc(Sc2ncc([N+](=O)[O-])s2)n1-c1ccc2c(c1)OCCO2 + CS(=O)(=O)c1ccc(C(=O)Nc2ccc(Cl)c(-c3ccccn3)c2)c(Cl)c1 [vismodegib] (first compound 0.2 µM, partner dose 1 µM)",cell count,WM115,104%
same,cell count,WM1716,110%
same,cell count,WM1745,114%
same,cell count,WM3526,95.1%
same,cell count,WM3619,127%
same,cell count,WM451Lu,104%
"CC1(C)NC(=O)N(c2ccc([N+](=O)[O-])c(C(F)(F)F)c2)C1=O [nilutamide] + O=C(Nc1cccc(Cl)c1)Nc1ncc(CCNc2ncnc3ccsc23)s1 [SNS314] (first compound 1 µM, partner dose 0.0008 µM)",cell count,WM115,77.7%
same,cell count,WM1716,65.9%
same,cell count,WM1745,86.6%
same,cell count,WM3526,112%
same,cell count,WM3619,159%
same,cell count,WM451Lu,111%
"CC1(C)NC(=O)N(c2ccc([N+](=O)[O-])c(C(F)(F)F)c2)C1=O [nilutamide] + NCC(=O)Nc1ccc(-n2nc(C(F)(F)F)cc2-c2ccc3c(ccc4ccccc43)c2)cc1 [OSU03012] (first compound 1 µM, partner dose 1 µM)",cell count,WM115,92.7%
same,cell count,WM1716,107%
same,cell count,WM1745,103%
same,cell count,WM3526,56.6%
same,cell count,WM3619,91.3%
same,cell count,WM451Lu,46.2%
"O=c1[nH]nc(Sc2ncc([N+](=O)[O-])s2)n1-c1ccc2c(c1)OCCO2 + Cc1ccc(NC(=O)c2cccc(N(C)C)c2)cc1NC(=O)c1ccc(O)cc1 [ZM336372] (first compound 0.2 µM, partner dose 2 µM)",cell count,WM115,105%
same,cell count,WM1716,111%
same,cell count,WM1745,96%
same,cell count,WM3526,98.7%
same,cell count,WM3619,83.7%
same,cell count,WM451Lu,115%
"O=C(Nc1cccc(Cl)c1)Nc1ncc(CCNc2ncnc3ccsc23)s1 + COc1cc2ncnc(Nc3ccc(Oc4ccccc4)cc3)c2cc1OC [SrcI1] (first compound 0.0008 µM, partner dose 2 µM)",cell count,WM115,77.1%
same,cell count,WM1716,119%
same,cell count,WM1745,79.2%
same,cell count,WM3526,108%
same,cell count,WM3619,144%
same,cell count,WM451Lu,106%
"CC1(C)NC(=O)N(c2ccc([N+](=O)[O-])c(C(F)(F)F)c2)C1=O [nilutamide] + COc1ccc(-c2ccc3c(N4CCOCC4)nc(N4C[C@@H](C)O[C@@H](C)C4)nc3n2)cc1CO [KU0063794] (first compound 1 µM, partner dose 0.02 µM)",cell count,WM115,111%
same,cell count,WM1716,103%
same,cell count,WM1745,98%
same,cell count,WM3526,103%
same,cell count,WM3619,110%
same,cell count,WM451Lu,86.2%
"COc1cc(Nc2ncc(F)c(Nc3ccc4c(n3)NC(=O)C(C)(C)O4)n2)cc(OC)c1OC [Tamatinib] + O=C1NC(=O)/C(=C/c2ccc(-c3ccc(F)cc3O)o2)S1 [AS252424] (first compound 0.4 µM, partner dose 1 µM)",cell count,WM115,88.4%
same,cell count,WM1716,94.9%
same,cell count,WM1745,70.3%
same,cell count,WM3526,71.2%
same,cell count,WM3619,111%
same,cell count,WM451Lu,93.8%
"COc1cc(Nc2ncc(F)c(Nc3ccc4c(n3)NC(=O)C(C)(C)O4)n2)cc(OC)c1OC [Tamatinib] + O=C(O)C(=O)Nc1sc2c(c1C(=O)O)CCNC2 [TCS401] (first compound 0.4 µM, partner dose 1.66667 µM)",cell count,WM115,89.1%
same,cell count,WM1716,91.7%
same,cell count,WM1745,56.8%
same,cell count,WM3526,73.1%
same,cell count,WM3619,96.7%
same,cell count,WM451Lu,101%
"COc1cc(Nc2ncc(F)c(Nc3ccc4c(n3)NC(=O)C(C)(C)O4)n2)cc(OC)c1OC [Tamatinib] + COc1ccc(COc2ccc(Cc3cnc(N)nc3N)cc2OC)cc1 [GW2580] (first compound 0.4 µM, partner dose 1 µM)",cell count,WM115,89.1%
same,cell count,WM1716,95.4%
same,cell count,WM1745,63.8%
same,cell count,WM3526,83.2%
same,cell count,WM3619,101%
same,cell count,WM451Lu,107%
"C[C@@H]1CCN(C(=O)CC#N)C[C@@H]1N(C)c1ncnc2[nH]ccc12 + COc1cc2c(Oc3ccc4[nH]c(C)cc4c3F)ncnc2cc1OCCCN1CCCC1 [cediranib] (first compound 1 µM, partner dose 0.4 µM)",cell count,WM115,120%
same,cell count,WM1716,97.9%
same,cell count,WM1745,75.4%
same,cell count,WM3526,28.6%
same,cell count,WM3619,98.6%
same,cell count,WM451Lu,89.9%
"O=c1[nH]nc(Sc2ncc([N+](=O)[O-])s2)n1-c1ccc2c(c1)OCCO2 + Nc1ccn([C@@H]2O[C@H](CO)[C@@H](O)C2(F)F)c(=O)n1 [gemcitabine] (first compound 0.2 µM, partner dose 0.0004 µM)",cell count,WM115,102%
same,cell count,WM1716,97.5%
same,cell count,WM1745,74.4%
same,cell count,WM3526,92.8%
same,cell count,WM3619,83.4%
same,cell count,WM451Lu,87.8%
"C[C@@H]1CCN(C(=O)CC#N)C[C@@H]1N(C)c1ncnc2[nH]ccc12 + NCC(=O)Nc1ccc(-n2nc(C(F)(F)F)cc2-c2ccc3c(ccc4ccccc43)c2)cc1 [OSU03012] (first compound 1 µM, partner dose 1 µM)",cell count,WM115,85.9%
same,cell count,WM1716,106%
same,cell count,WM1745,92.1%
same,cell count,WM3526,40.9%
same,cell count,WM3619,97.3%
same,cell count,WM451Lu,73.6%
"CC1(C)NC(=O)N(c2ccc([N+](=O)[O-])c(C(F)(F)F)c2)C1=O [nilutamide] + CC(C)(C)c1cnc(CSc2cnc(NC(=O)C3CCNCC3)s2)o1 [SNS-032] (first compound 1 µM, partner dose 0.01 µM)",cell count,WM115,98.7%
same,cell count,WM1716,96.7%
same,cell count,WM1745,84.7%
same,cell count,WM3526,102%
same,cell count,WM3619,107%
same,cell count,WM451Lu,86.1%
"COc1cc(Nc2ncc(F)c(Nc3ccc4c(n3)NC(=O)C(C)(C)O4)n2)cc(OC)c1OC [Tamatinib] + O=C(Nc1cccc(Cl)c1)Nc1ncc(CCNc2ncnc3ccsc23)s1 [SNS314] (first compound 0.4 µM, partner dose 0.0008 µM)",cell count,WM115,66.4%
same,cell count,WM1716,91.7%
same,cell count,WM1745,58%
same,cell count,WM3526,82.7%
same,cell count,WM3619,86.7%
same,cell count,WM451Lu,88.6%
"C[C@@H]1CCN(C(=O)CC#N)C[C@@H]1N(C)c1ncnc2[nH]ccc12 + c1cc(-c2cnn3cc(-c4ccc(OCCN5CCCCC5)cc4)cnc23)ccn1 [Dorsomorphin] (first compound 1 µM, partner dose 0.4 µM)",cell count,WM115,133%
same,cell count,WM1716,118%
same,cell count,WM1745,77.3%
same,cell count,WM3526,99.8%
same,cell count,WM3619,136%
same,cell count,WM451Lu,102%
"CC1(C)NC(=O)N(c2ccc([N+](=O)[O-])c(C(F)(F)F)c2)C1=O [nilutamide] + Oc1nc(-c2ccc(C(F)(F)F)cc2)nc2c1CSCC2 [XAV939] (first compound 1 µM, partner dose 2 µM)",cell count,WM115,92.7%
same,cell count,WM1716,56.9%
same,cell count,WM1745,83.4%
same,cell count,WM3526,126%
same,cell count,WM3619,105%
same,cell count,WM451Lu,104%
"O=c1[nH]nc(Sc2ncc([N+](=O)[O-])s2)n1-c1ccc2c(c1)OCCO2 + C[C@]1(c2nc3c(C(N)=O)cccc3[nH]2)CCCN1 [Veliparib] (first compound 0.2 µM, partner dose 1.4 µM)",cell count,WM115,85.9%
same,cell count,WM1716,104%
same,cell count,WM1745,122%
same,cell count,WM3526,118%
same,cell count,WM3619,105%
same,cell count,WM451Lu,84.1%
"CC1(C)NC(=O)N(c2ccc([N+](=O)[O-])c(C(F)(F)F)c2)C1=O [nilutamide] + c1cc(-c2cnn3cc(-c4ccc(OCCN5CCCCC5)cc4)cnc23)ccn1 [Dorsomorphin] (first compound 1 µM, partner dose 0.4 µM)",cell count,WM115,98.8%
same,cell count,WM1716,95.9%
same,cell count,WM1745,92.4%
same,cell count,WM3526,112%
same,cell count,WM3619,101%
same,cell count,WM451Lu,91.4%
"Cn1cncc1[C@@](N)(c1ccc(Cl)cc1)c1ccc2c(c1)c(-c1cccc(Cl)c1)cc(=O)n2C [tipifarnib] + O=C(Nc1ccccc1)c1cc([N+](=O)[O-])ccc1Cl [GW9662] (first compound 0.01 µM, partner dose 2 µM)",cell count,WM115,95.5%
same,cell count,WM1716,87.6%
same,cell count,WM1745,121%
same,cell count,WM3526,89.4%
same,cell count,WM3619,80.3%
same,cell count,WM451Lu,115%
